The text below walks through data of a collection of fitness landscapes (doi:10.1016/j.celrep.2020.107928).

In all, about 81,000 sequences were measured (“one-hybrid fitness for binding NBS DNA”: median about -0.1, highest 2% from about 0.36 on). The list shows a part of the results. Some results are limits rather than exact numbers.

Sequences and labels used below:
B1: Caulobacter ParB omega fusion; a variant is named by its letters at X, in order, B8GW30 (parent)
chain: MESVVVGEPGMSEGRRGLGRGLSALLGEVDAAPAQAPGEQLGGSREAPIEILQRNPDQPRRTFREEDLEDLSNSIREKGVLQPILVRPSPDTAGEYQIVAGERAWRAAQRAGLKTVPIMVRELDDLAVLEIGIIENVQRADLNVLEEALSYKVLMEKFERTQENIAQTIGKSXSHVANXMRLLXLPDEVQSYLVSGELTAXHARAIAAAADPVALAKQIIEGGLSVRETEALARKAPNLSAGKSKGGRPPRVKDTDTQALESDLSSVLGLDVSIDHRGSTGTLTITYATLEQLDDLCNRLTRGI

Variants of B1 are the subject of the test. The test can be described thus: one-hybrid fitness for binding NBS DNA (the Noc-binding site; scaled: cognate 1, non-cognate 0); higher = stronger binding. The following applies: with NBS DNA site. The procedure, abridged: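 Fitness here means the log change in variant-to-wild-type read ratio between plasmids sequenced before and after selection. That scale was set so cognate equals 1 and non-cognate equals 0. The selection was a bacterial one-hybrid screen of Caulobacter ParB libraries, four specificity codons randomised, in E. coli USO carrying a HIS3 reporter with the site 19 bp from the promoter, grown 48 hours at 37°C on M9-minus-histidine with 0.1 mM IPTG and 5 mM 3-AT.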
Turning to EFSS, the “one-hybrid fitness for binding NBS DNA” value is ≤ 0.2.

With TARI, the “one-hybrid fitness for binding NBS DNA” value was ≤ 0.2. To PHYG belongs ≤ 0.2.

Take NAGS: the “one-hybrid fitness for binding NBS DNA” value was ≤ 0.2. To DGCF belongs ≤ 0.2; to DPYS, ≤ 0.2. To QDGF belongs ≤ 0.2. Consider LMLD, for which the “one-hybrid fitness for binding NBS DNA” value was ≤ 0.2.

On to YQMN, for which the “one-hybrid fitness for binding NBS DNA” value was ≤ 0.2.

With QNTV, the “one-hybrid fitness for binding NBS DNA” value was ≤ 0.2. Turning to HHCV, the “one-hybrid fitness for binding NBS DNA” value is ≤ 0.2. Take EVHS: the “one-hybrid fitness for binding NBS DNA” value was ≤ 0.2. To TTDY belongs ≤ 0.2; to TKDQ, ≤ 0.2. In the case of RRTT it was 0.716; in that of IPEG, ≤ 0.2; in that of NCDG, ≤ 0.2. In the case of SMPP it was ≤ 0.2. EMYW: the “one-hybrid fitness for binding NBS DNA” value was ≤ 0.2. In the case of ILLY it was ≤ 0.2; in that of GIEA, ≤ 0.2.

In the case of NITW, the “one-hybrid fitness for binding NBS DNA” value is ≤ 0.2.

Take PENL: the “one-hybrid fitness for binding NBS DNA” value was ≤ 0.2.

Consider EFYS, for which the “one-hybrid fitness for binding NBS DNA” value is ≤ 0.2. To QKNI belongs ≤ 0.2. In the case of CYSH it was ≤ 0.2; in that of RTQI, ≤ 0.2; in that of MDNV, ≤ 0.2. In the case of AIYS it was ≤ 0.2; in that of VPGW, ≤ 0.2.

Take YPSA: the “one-hybrid fitness for binding NBS DNA” value is ≤ 0.2. In the case of SRMY it was ≤ 0.2; in that of VSPG, ≤ 0.2. To QHLM belongs ≤ 0.2; to IPPD, ≤ 0.2; to SVYE, ≤ 0.2. On to YACG, for which the “one-hybrid fitness for binding NBS DNA” value was ≤ 0.2. For the variant SLAS, the “one-hybrid fitness for binding NBS DNA” value was ≤ 0.2.

In the case of TIRD, the “one-hybrid fitness for binding NBS DNA” value was ≤ 0.2. To VMIL belongs ≤ 0.2. In the case of PVRP it was ≤ 0.2; in that of RSGY, ≤ 0.2; in that of NASP, ≤ 0.2. To WNIT belongs ≤ 0.2; to TQYW, ≤ 0.2; to KWDG, ≤ 0.2. For PYYD, the “one-hybrid fitness for binding NBS DNA” value was ≤ 0.2.

Consider TVTG, for which the “one-hybrid fitness for binding NBS DNA” value is ≤ 0.2.

Regarding FGMS, the “one-hybrid fitness for binding NBS DNA” value is ≤ 0.2.

As for TPCN, the “one-hybrid fitness for binding NBS DNA” value is ≤ 0.2. For the variant FSTR, the “one-hybrid fitness for binding NBS DNA” value is ≤ 0.2. To FMDS belongs ≤ 0.2. To HSKL belongs ≤ 0.2; to LHWG, ≤ 0.2; to CMVY, ≤ 0.2. In the case of THSF, the “one-hybrid fitness for binding NBS DNA” value was ≤ 0.2. In the case of TQRS it was ≤ 0.2. Regarding LLTA, the “one-hybrid fitness for binding NBS DNA” value is ≤ 0.2.

Consider CRNH, for which the “one-hybrid fitness for binding NBS DNA” value was ≤ 0.2. In the case of PWIT it was ≤ 0.2. Consider KTHC, for which the “one-hybrid fitness for binding NBS DNA” value was ≤ 0.2. To ASCT belongs ≤ 0.2; to QNQC, ≤ 0.2; to QNHK, ≤ 0.2.

Regarding NCKC, the “one-hybrid fitness for binding NBS DNA” value was ≤ 0.2. With PSIC, the “one-hybrid fitness for binding NBS DNA” value was ≤ 0.2. In the case of AVNA it was ≤ 0.2; in that of ASPS, ≤ 0.2; in that of PPGS, ≤ 0.2. In the case of QEHN it was ≤ 0.2; in that of PNLM, ≤ 0.2. To KCKG belongs ≤ 0.2; to VMNR, ≤ 0.2.

For the variant FLTC, the “one-hybrid fitness for binding NBS DNA” value was ≤ 0.2. In the case of TAAG it was ≤ 0.2; in that of DRLI, ≤ 0.2; in that of LKMV, ≤ 0.2. To SRPV belongs ≤ 0.2; to REPY, ≤ 0.2; to RSYR, 0.381. In the case of KFMR it was ≤ 0.2; in that of IGPC, ≤ 0.2. In the case of ACFG, the “one-hybrid fitness for binding NBS DNA” value is ≤ 0.2.

As for MNKT, the “one-hybrid fitness for binding NBS DNA” value was ≤ 0.2.
